{"source": "the supplement of paper PMC11417369", "note": "± gives the standard deviation of the averaged measurements. The list shows a part of the results."}
{"test_system": "PfAP2-G AP2 domain (GST-tagged)", "assay": "gcPBM binding intensity (ln(normalized median fluorescence intensity)); higher = stronger DNA binding", "procedure,_shortened": "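Using an Agilent 4 × 180k array, primer-extended double-stranded 36-bp intergenic genomic probes and negative controls were exposed for 1 h to GST-fused P. falciparum DNA-binding domains expressed in E. coli. Binding was carried out in 1× PBS with 1% milk, 0.2 mg/ml BSA, 0.5% salmon testes DNA and 0.03% Triton X-100, and protein was detected with Alexa488 anti-GST antibody and a 488 nm scan. Binding intensity is the highest Masliner-normalised natural-log median intensity across replicate spots of either probe orientation.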"}
{"sequence": "TAATATTACATTTATTGTACTTTGTTTTTATTTTAT [XGTACX_site1605]", "gcPBM binding intensity (ln)": "11.1 ± 0.62"}
{"sequence": "AAAAAAAAAAATTGCACACAAAAAAAAAAAAAAAAA [CACACA_site2073]", "gcPBM binding intensity (ln)": "10.1 ± 0.51"}
{"sequence": "TTAAAAATTAAAAGTAGTACATATAATATAAACATT [XGTACX_site424]", "gcPBM binding intensity (ln)": "11.5 ± 0.76"}
{"sequence": "TAATACTTAATGAACACATGCACATATACATAGTAT [TGCATGCA_site496]", "gcPBM binding intensity (ln)": "10.3 ± 0.2"}
{"sequence": "TGTTTCTAAGAATTTACACACAAAATATTTCTACAT [CACACA_site7846]", "gcPBM binding intensity (ln)": "9.91 ± 0.11"}
{"sequence": "ATAATTATACAAAAGCGTACACGATATAAATCTACG [XGTACX_site8115]", "gcPBM binding intensity (ln)": "11.6 ± 0.95"}
{"sequence": "CTTAAATCCATAATATGTACTTAAAAAGAAAAAATA [XGTACX_site4765]", "gcPBM binding intensity (ln)": "11.3 ± 0.68"}
{"sequence": "AGACAATTTTTTAGTACACACATATAGATATATAAA [CACACA_site6832]", "gcPBM binding intensity (ln)": "11.4 ± 1"}
{"sequence": "TTATAAAAAAAAAAAAAAAAAAAAACCAATATAATA [CACACA_negctrl_site968]", "gcPBM binding intensity (ln)": "9.69 ± 0.12"}
{"sequence": "TTTATTCTAAAATATTAAAAATGATTTGTTTTTTCA [CACACA_negctrl_site1751]", "gcPBM binding intensity (ln)": 9.51}
{"sequence": "GTATTATAAAAAGGAAGTACATATATACATATTATA [XGTACX_site1271]", "gcPBM binding intensity (ln)": "11.3 ± 0.75"}
{"sequence": "ATATGAACATTAAAAAAGTAAGGTATTCTCCCCTCT [CACACA_negctrl_site1299]", "gcPBM binding intensity (ln)": "10.06 ± 0.092"}
{"sequence": "AAATAAAGAAATGCAAGTACATACTAAACTAATCCA [XGTACX_site1209]", "gcPBM binding intensity (ln)": "11.2 ± 0.59"}
{"sequence": "ATTTTCCCTAGAATATGTACACATAGTAAATATTAT [XGTACX_site7499]", "gcPBM binding intensity (ln)": "11.4 ± 0.83"}
{"sequence": "ATATATAAATATGAAACACACATTCTATTTAATTCG [CACACA_site1450]", "gcPBM binding intensity (ln)": "9.76 ± 0.028"}
{"sequence": "CAGATAAATAAACACACACACACATATATATATATA [CACACA_site9311]", "gcPBM binding intensity (ln)": "10.2 ± 0.59"}
{"sequence": "TCTTAAATTATGATAAAATATAATAAATAAATAAAT [CACACA_negctrl_site1520]", "gcPBM binding intensity (ln)": "9.485 ± 0.078"}
{"sequence": "TTGTTTTATACATAGTGTACATATAAAAATTTTTTT [XGTACX_site7549]", "gcPBM binding intensity (ln)": "11.4 ± 0.88"}
{"sequence": "ATATATATTATAATCTGTACATAAATATATAATAAA [XGTACX_site5425]", "gcPBM binding intensity (ln)": "11 ± 0.64"}
{"sequence": "TATGTTTCTATATATACATGCAAGAAGAAATGTACT [TGCATGCA_site891]", "gcPBM binding intensity (ln)": "10.2 ± 0.12"}
{"sequence": "ATGTCACAATTTTTCACACACAAAATTTATATACAT [CACACA_site2030]", "gcPBM binding intensity (ln)": "10.2 ± 0.12"}
{"sequence": "AAAAAAAAAAAAGAAAAATATATATATAAATAAATA [GTGCAC_negctrl_site569]", "gcPBM binding intensity (ln)": "9.52 ± 0.028"}
{"sequence": "ATATGTACAAATTATACACACATGTACAATTATATA [CACACA_site1253]", "gcPBM binding intensity (ln)": "11.3 ± 0.79"}
{"sequence": "TTACATACAATTGGTGTGCACATATATATATATATA", "gcPBM binding intensity (ln)": "10.7 ± 0.56"}
{"sequence": "GTTAATATTTTTGGGGGTACTTAAAAAAAAAAAAAA [XGTACX_site1477]", "gcPBM binding intensity (ln)": "11.7 ± 0.91"}
{"sequence": "AATTTAAAAAATAATTGTACAAAAAAAAAAAATCAG [XGTACX_site4576]", "gcPBM binding intensity (ln)": "11.2 ± 0.81"}
{"sequence": "GAATATTAATTCAAGTGTACAAATATATATATAATT [XGTACX_site5103]", "gcPBM binding intensity (ln)": "11 ± 0.47"}
{"sequence": "CAAAAGGATAGGCACACACACACACCGATATATATA [CACACA_site8685]", "gcPBM binding intensity (ln)": "10.3 ± 0.28"}
{"sequence": "ATAAAAATTTATATATGTACTTAATTTTTAATTTTT [XGTACX_site7482]", "gcPBM binding intensity (ln)": "11.3 ± 0.99"}
{"sequence": "ATAATATAAATATACACACACACATATATATATATA [CACACA_site2905]", "gcPBM binding intensity (ln)": "10 ± 0.3"}
{"sequence": "TAATAAGGAATTTATAGTACATATTCATATGTTTTA [XGTACX_site2331]", "gcPBM binding intensity (ln)": "10.8 ± 0.59"}
{"sequence": "TTCTTGTATATTCATAGTACATATAATGTCGTGTTA [XGTACX_site8991]", "gcPBM binding intensity (ln)": "10.9 ± 0.64"}
{"sequence": "TATGTTTTTGAATGAGTGCATTAAAATAAAACATTT", "gcPBM binding intensity (ln)": "10.2 ± 0.27"}
{"sequence": "ATTATTTATATTTGGAGTACTTATAATATTTTTATA [XGTACX_site1289]", "gcPBM binding intensity (ln)": "11.6 ± 0.93"}
{"sequence": "AGTGTAAGCTAAGTGGTGCGTTGAATAAGGTTTTTT [GTGCAC_site9951]", "gcPBM binding intensity (ln)": "10.03 ± 0.014"}
{"sequence": "TATAGGTATTTGTATACACACAAATGTATATATCTA [CACACA_site6713]", "gcPBM binding intensity (ln)": "9.985 ± 0.021"}
{"sequence": "CTTTATATATTTTATTGTACTTAAAAAAAAAAAAAA [XGTACX_site2134]", "gcPBM binding intensity (ln)": "11.4 ± 1.1"}
{"sequence": "AAAAAATATGCATATACACACATATGTATAAATAAC [CACACA_site7090]", "gcPBM binding intensity (ln)": "10.21 ± 0.099"}
{"sequence": "AAAATATTTATTCCTAGTACTTACCATTATATATAT [XGTACX_site363]", "gcPBM binding intensity (ln)": "10.8 ± 0.26"}
{"sequence": "AAAAAAAAATGAAAAGAAAAAAAAAGAAAAAAGGGA [CACACA_negctrl_site287]", "gcPBM binding intensity (ln)": "9.825 ± 0.035"}
{"sequence": "TATATTTATACTTATACACACATTATTGAATTAACC [CACACA_site934]", "gcPBM binding intensity (ln)": "10.1 ± 0.11"}
{"sequence": "AATGAGCTTTTTAAAAGTACTAAATATAAATAAATA [XGTACX_site3632]", "gcPBM binding intensity (ln)": "11 ± 0.58"}
{"sequence": "TATATATGTATATTTTGTACGTATTTATTTACATGA [XGTACX_site4584]", "gcPBM binding intensity (ln)": "11.4 ± 0.88"}
{"sequence": "AAAAAAAAAAAAAACACACACACACGCATACACATA [CACACA_site7364]", "gcPBM binding intensity (ln)": "10.2 ± 0.2"}
{"sequence": "ATAAATAAAACAAATAGTACAATATAAAAAAAAAGG [XGTACX_site87]", "gcPBM binding intensity (ln)": "11.1 ± 0.45"}
{"sequence": "AAGAGGATACACAATGTGCACTTTTTTTTTTTTTTT [GTGCAC_site9415]", "gcPBM binding intensity (ln)": "10.7 ± 0.32"}
{"sequence": "TATACAGATATATATACACACATATATATAAATACA [CACACA_site4383]", "gcPBM binding intensity (ln)": "9.795 ± 0.049"}
{"sequence": "TATATATATAATATATGTACTCATATTAAGAGATAC [XGTACX_site1354]", "gcPBM binding intensity (ln)": "11.4 ± 0.86"}
{"sequence": "AATAGTTGCTAAAGGTGTACAATACATTTATTAGAA [XGTACX_site2773]", "gcPBM binding intensity (ln)": "11.3 ± 0.85"}
{"sequence": "TATTACTTAAATAAAAGTACATATAACATTTTAGTT [XGTACX_site196]", "gcPBM binding intensity (ln)": "11.4 ± 0.93"}
{"sequence": "GAAAATAAAATATTAGTGCATTATTTGATCAATAAT", "gcPBM binding intensity (ln)": "9.725 ± 0.078"}
{"sequence": "TCTTTGGTATTTACATGTACATATTCTTAAAAACAT [XGTACX_site3124]", "gcPBM binding intensity (ln)": "11.3 ± 0.84"}
{"sequence": "TGTATAGTCTAAAGTTGTACAAAAAAAAAAAAAAAA [XGTACX_site5764]", "gcPBM binding intensity (ln)": "11.3 ± 1"}
{"sequence": "CGAAAAATATGTATGAGTACTTATATTTAAACTATA [XGTACX_site1911]", "gcPBM binding intensity (ln)": "11.2 ± 0.64"}
{"sequence": "ATAAATATTGCGTGCACACACATAATATTTATATAT [CACACA_site7136]", "gcPBM binding intensity (ln)": "10.5 ± 0.51"}
{"sequence": "TATAATATATTCATGTGTACATATATTTCGAACATA [XGTACX_site1754]", "gcPBM binding intensity (ln)": "11.6 ± 1.1"}
{"sequence": "ATGTCATAAAAACATATACACACTTGAAATATAAAA [CACACA_site2329]", "gcPBM binding intensity (ln)": "10 ± 0.24"}
